Reference: patent US20030224453A1, “Structural models for cytoplasmic domains of transmembrane receptors” (priority 1998, published 2003)
These are yes or no findings as the source states them, for the method shown. Some results given as binding are weak or reduced against the parent protein; the word gives no strength.

Sequences of proteins named here, by UniProt entry; tags and fusion partners are left off. Residues count along the entry.
UniProt P21333, residues 2-2647: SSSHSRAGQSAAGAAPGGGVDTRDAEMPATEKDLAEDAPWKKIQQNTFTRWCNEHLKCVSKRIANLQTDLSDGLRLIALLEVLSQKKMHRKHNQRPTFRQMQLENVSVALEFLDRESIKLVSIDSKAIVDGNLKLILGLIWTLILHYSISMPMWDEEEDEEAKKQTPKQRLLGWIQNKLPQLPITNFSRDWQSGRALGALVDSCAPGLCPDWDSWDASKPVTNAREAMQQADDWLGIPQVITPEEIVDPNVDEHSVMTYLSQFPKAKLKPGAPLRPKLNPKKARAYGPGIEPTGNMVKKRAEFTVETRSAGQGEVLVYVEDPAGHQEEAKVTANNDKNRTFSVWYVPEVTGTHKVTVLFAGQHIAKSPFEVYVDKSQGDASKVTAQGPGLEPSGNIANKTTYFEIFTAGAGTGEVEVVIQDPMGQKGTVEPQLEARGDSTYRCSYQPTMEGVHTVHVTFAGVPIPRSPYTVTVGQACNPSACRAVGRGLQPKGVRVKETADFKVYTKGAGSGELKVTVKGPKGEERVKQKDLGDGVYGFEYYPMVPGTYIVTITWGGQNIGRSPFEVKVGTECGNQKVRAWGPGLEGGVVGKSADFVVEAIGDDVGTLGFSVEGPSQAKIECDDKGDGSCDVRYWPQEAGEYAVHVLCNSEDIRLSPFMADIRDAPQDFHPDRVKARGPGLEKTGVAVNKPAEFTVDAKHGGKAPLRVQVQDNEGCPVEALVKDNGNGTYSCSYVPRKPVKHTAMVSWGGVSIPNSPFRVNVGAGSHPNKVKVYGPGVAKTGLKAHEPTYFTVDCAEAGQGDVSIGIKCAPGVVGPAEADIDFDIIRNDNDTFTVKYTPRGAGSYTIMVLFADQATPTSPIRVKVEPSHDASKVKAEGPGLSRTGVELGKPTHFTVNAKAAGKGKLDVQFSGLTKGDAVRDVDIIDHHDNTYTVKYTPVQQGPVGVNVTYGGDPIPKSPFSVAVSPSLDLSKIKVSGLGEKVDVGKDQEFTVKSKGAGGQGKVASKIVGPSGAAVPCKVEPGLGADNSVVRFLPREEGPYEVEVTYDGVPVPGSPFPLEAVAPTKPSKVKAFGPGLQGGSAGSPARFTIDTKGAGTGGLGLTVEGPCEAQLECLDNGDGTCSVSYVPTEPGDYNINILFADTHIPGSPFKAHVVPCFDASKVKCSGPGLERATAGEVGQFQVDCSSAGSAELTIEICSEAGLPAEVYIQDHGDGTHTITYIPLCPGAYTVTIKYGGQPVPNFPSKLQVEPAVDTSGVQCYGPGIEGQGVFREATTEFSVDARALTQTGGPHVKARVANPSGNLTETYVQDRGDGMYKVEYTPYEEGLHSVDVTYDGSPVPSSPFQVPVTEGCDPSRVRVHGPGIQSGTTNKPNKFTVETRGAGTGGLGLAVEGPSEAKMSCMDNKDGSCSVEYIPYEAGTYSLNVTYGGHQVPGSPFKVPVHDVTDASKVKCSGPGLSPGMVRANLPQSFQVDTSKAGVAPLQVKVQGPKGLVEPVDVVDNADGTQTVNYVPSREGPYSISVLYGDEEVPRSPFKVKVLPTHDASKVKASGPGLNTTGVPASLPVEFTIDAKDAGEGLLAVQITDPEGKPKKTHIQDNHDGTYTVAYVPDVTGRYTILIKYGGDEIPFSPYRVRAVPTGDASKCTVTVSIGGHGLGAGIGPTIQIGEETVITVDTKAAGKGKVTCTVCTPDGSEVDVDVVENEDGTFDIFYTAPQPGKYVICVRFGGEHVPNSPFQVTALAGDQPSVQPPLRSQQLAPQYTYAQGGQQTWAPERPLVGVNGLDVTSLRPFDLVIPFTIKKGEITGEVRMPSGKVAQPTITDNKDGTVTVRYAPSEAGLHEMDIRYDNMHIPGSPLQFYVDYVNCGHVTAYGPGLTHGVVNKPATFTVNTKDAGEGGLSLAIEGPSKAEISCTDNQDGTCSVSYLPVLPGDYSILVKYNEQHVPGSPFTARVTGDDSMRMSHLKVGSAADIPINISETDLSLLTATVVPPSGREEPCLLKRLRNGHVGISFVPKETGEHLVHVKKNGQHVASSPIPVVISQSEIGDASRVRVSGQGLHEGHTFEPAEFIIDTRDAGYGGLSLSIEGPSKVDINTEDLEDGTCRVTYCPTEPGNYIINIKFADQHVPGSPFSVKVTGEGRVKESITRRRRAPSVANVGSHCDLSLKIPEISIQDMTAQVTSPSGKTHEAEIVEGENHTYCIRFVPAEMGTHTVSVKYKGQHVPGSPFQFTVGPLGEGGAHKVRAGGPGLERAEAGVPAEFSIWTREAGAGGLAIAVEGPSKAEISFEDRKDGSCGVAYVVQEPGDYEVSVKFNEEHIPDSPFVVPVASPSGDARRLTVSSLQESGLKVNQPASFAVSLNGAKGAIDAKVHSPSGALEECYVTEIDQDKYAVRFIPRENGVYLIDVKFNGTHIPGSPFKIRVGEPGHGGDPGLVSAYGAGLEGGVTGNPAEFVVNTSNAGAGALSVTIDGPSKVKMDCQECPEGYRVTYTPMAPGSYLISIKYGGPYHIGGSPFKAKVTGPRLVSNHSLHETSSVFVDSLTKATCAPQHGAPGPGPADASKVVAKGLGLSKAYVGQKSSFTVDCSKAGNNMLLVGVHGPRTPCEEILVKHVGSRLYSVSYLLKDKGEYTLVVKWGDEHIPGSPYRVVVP
UniProt Q9Y490: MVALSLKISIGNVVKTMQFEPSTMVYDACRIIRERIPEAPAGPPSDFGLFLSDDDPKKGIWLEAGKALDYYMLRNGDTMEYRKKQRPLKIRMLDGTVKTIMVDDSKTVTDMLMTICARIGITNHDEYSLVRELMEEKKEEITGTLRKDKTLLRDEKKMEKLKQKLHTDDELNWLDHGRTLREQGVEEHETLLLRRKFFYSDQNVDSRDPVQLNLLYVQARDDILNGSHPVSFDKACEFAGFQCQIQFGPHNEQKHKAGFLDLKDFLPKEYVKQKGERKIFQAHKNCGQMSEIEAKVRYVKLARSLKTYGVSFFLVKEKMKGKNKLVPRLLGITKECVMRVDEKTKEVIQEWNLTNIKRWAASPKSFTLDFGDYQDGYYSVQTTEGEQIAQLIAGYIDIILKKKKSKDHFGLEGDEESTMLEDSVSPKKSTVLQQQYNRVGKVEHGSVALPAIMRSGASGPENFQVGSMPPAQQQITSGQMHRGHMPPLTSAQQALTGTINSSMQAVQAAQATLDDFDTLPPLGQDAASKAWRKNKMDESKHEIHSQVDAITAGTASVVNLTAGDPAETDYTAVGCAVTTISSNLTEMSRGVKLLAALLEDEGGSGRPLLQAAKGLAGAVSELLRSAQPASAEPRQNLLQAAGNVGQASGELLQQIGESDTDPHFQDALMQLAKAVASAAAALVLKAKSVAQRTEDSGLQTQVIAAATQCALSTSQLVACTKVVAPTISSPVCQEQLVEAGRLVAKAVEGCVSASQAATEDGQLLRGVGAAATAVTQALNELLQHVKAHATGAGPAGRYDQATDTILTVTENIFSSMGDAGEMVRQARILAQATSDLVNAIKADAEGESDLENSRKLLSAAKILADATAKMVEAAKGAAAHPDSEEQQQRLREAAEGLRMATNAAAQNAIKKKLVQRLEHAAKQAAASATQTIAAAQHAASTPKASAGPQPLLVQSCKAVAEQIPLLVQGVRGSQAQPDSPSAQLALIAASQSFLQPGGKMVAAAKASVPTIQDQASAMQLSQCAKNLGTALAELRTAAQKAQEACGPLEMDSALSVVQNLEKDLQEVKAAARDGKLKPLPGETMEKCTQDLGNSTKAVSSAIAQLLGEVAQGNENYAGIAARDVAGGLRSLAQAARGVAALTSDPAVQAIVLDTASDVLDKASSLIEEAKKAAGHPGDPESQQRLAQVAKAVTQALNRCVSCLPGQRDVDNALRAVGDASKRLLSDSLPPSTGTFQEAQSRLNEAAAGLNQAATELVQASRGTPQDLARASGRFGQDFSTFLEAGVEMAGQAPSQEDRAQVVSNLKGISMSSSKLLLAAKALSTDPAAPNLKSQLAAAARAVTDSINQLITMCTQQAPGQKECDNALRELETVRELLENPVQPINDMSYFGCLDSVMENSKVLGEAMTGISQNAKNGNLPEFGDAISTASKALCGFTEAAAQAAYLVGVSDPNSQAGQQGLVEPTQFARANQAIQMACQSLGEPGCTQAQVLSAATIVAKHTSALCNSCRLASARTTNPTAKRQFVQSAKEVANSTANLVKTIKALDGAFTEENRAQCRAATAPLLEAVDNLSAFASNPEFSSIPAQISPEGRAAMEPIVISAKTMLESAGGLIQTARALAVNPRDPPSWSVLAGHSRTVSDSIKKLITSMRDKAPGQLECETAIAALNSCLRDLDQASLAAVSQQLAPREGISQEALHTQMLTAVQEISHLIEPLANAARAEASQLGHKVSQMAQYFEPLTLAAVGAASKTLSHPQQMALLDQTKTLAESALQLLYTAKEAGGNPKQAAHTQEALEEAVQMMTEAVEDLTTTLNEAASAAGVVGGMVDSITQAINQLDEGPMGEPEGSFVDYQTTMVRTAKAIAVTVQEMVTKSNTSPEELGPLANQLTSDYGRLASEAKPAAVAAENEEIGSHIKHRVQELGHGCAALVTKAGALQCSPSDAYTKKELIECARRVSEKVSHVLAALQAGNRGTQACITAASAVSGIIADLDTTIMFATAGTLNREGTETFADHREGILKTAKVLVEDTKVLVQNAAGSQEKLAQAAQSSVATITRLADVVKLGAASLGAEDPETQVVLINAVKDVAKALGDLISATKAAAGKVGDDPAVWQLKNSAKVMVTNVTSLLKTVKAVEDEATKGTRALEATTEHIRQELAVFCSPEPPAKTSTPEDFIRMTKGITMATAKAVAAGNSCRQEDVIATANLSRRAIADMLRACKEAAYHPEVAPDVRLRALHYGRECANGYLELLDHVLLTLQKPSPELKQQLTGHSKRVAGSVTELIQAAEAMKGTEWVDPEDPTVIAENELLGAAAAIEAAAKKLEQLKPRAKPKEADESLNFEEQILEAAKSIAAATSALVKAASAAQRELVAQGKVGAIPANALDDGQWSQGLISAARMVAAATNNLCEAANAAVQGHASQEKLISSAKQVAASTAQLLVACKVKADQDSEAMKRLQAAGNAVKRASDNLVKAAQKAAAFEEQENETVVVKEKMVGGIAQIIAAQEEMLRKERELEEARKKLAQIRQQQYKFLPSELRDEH

B1: G2-β1A cytoplasmic domain model protein (designed binder)
chain: GSSHHHHHHSSGLVPRGSHMKLEALEGRLDALEGKLEALEGKLDALEGGKLLMIIHDRREFAKFEKEKMNAKWDTGENPIYKSAVTTVVNPKYEGK
B2: G1-β1D cytoplasmic domain model protein (designed binder)
chain: GSSHHHHHHSSGLVPRGSHMKLEALEGRLDALEGKLEALEGKLDALEGKLLMIIHDRREFAKFEKEKMNAKWDTQENPIYKSPINNFKNPNYGRKAGL
B3: G4-β1D cytoplasmic domain model protein (designed binder)
chain: GSSHHHHHHSSGLVPRGSHMKLEALEGRLDALEGKLEALEGKLDALEGGGGKLLMIIHDRREFAKFEKEKMNAKWDTQENPIYKSPINNFKNPNYGRKAGL
B4: G1-β7 cytoplasmic domain model protein (designed binder)
chain: GSSHHHHHHSSGLVPRGSHMKLEALEGRLDALEGKLEALEGKLDALEGKLSVEIYDRREYSRFEKEQQQLNWKQDSNPLYKSAITTTINPRFQEADSPTL
B5: G4-β7 cytoplasmic domain model protein (designed binder)
chain: GSSHHHHHHSSGLVPRGSHMKLEALEGRLDALEGKLEALEGKLDALEGGGGKLSVEIYDRREYSRFEKEQQQLNWKQDSNPLYKSAITTTINPRFQEADSPTL
B6: G3-β1A cytoplasmic domain model protein (designed binder)
chain: GSSHHHHHHSSGLVPRGSHMKLEALEGRLDALEGKLEALEGKLDALEGGGKLLMIIHDRREFAKFEKEKMNAKWDTGENPIYKSAVTTVVNPKYEGK
B7: G4-β1A cytoplasmic domain model protein (designed binder)
chain: GSSHHHHHHSSGLVPRGSHMKLEALEGRLDALEGKLEALEGKLDALEGGGGKLLMIIHDRREFAKFEKEKMNAKWDTGENPIYKSAVTTVVNPKYEGK
B8: G4-β1A-Y788A cytoplasmic domain model protein (designed binder)
chain: GSSHHHHHHSSGLVPRGSHMKLEALEGRLDALEGKLEALEGKLDALEGGGGKLLMIIHDRREFAKFEKEKMNAKWDTGENPIAKSAVTTVVNPKYEGK

Assays:
filamin (ABP-280) [1] = molecular target: T1, filamin (ABP-280) (Homo sapiens, UniProt P21333); assay: affinity chromatography: model protein on Ni2+ resin, biotinylated human platelet lysate, blot
talin [2] = molecular target: T2, talin (Homo sapiens, UniProt Q9Y490); assay: purified human platelet talin on model protein resin, Coomassie gel
filamin (ABP-280) [3] = molecular target: T1, filamin (ABP-280); assay: purified human uterus filamin on model protein resin, Coomassie gel
talin [4] = molecular target: T2, talin; assay: affinity chromatography: model protein on Ni2+ resin; lysates of human platelets, Jurkat and HT1080 cells
filamin (ABP-280) [5] = molecular target: T1, filamin (ABP-280); assay: as above
talin [6] = molecular target: T2, talin; assay: affinity chromatography: model protein on Ni2+ resin, biotinylated human platelet lysate, blot
filamin (ABP-280) [7] = molecular target: T1, filamin (ABP-280); assay: affinity chromatography: model protein on Ni2+ resin, biotinylated human platelet lysate
talin [8] = molecular target: T2, talin; assay: as above

Row | Binder | binding (filamin (ABP-280) [1]) | binding (talin [2]) | binding (filamin (ABP-280) [3]) | further results
1 | B1 | binds |  |  | 
2 | B2 |  | binds | binds | binding (talin [4]): binds
3 | B3 |  | binds | binds | binding (talin [4]): binds
4 | B4 |  |  | binds | binding (filamin (ABP-280) [5]): binds
5 | B5 |  |  | binds | binding (filamin (ABP-280) [5]): binds
6 | B6 | binds |  |  | 
7 | B7 | binds | binds | binds | binding (talin [6]): binds
8 | B8 |  |  |  | binding (filamin (ABP-280) [7]): no binding; binding (talin [8]): no binding
